In the supplement of paper PMC3334620:
In all, about 33,000 sequences were measured (“E-score (-0.5 to 0.5)”: median about -0.011, highest 2% from about 0.28 on). This is one part of the list.

Target: T1, Gcr1 (UniProt P07261)
T1 sequence: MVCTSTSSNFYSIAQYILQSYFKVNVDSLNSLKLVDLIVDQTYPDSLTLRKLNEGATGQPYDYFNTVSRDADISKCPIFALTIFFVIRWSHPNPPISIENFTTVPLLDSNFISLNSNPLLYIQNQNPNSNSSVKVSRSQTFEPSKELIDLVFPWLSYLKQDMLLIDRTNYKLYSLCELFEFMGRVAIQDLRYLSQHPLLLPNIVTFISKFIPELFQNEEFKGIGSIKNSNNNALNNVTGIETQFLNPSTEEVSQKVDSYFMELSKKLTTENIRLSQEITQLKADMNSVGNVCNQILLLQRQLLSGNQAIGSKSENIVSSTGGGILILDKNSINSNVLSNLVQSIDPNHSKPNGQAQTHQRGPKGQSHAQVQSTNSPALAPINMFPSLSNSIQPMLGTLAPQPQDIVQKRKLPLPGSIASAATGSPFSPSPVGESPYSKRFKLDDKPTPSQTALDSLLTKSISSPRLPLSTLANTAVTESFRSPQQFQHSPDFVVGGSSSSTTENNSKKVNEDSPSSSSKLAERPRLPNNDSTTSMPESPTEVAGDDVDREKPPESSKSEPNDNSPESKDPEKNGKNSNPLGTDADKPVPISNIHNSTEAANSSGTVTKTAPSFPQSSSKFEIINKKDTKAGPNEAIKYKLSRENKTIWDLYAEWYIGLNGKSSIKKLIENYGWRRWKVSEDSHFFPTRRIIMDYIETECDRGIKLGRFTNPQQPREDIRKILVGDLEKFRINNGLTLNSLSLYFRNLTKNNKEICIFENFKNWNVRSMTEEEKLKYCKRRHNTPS
Assay: PBM E-score (8-mer binding enrichment) (E-score (-0.5 to 0.5)); higher = stronger / more preferred TF binding; most listed sequences are background and not binding sites
Details: protein concentration: 100 nM; construct: GST-full length
How it was run: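 Bound GST-tagged yeast transcription factors, applied at about 100-200 nM to double-stranded universal all-10-mer Agilent arrays, were detected with fluorescent anti-GST. Scans were normalised with masliner. A modified Wilcoxon-Mann-Whitney statistic, the E-score, was assigned to each ungapped eight-base word pooled with its reverse complement by the Universal PBM Analysis Suite.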

Sequence	PBM E-score
CTAGGAGC	0.181
AATCGACT	-0.0728
GATTCATA	-0.0102
CAAAGAGG	-0.0776
GAGGTGGC	-0.189
ACTATAAG	0.00633
GGTAGAAC	-0.245
GCCCCCAA	0.193
ACATTGGT	0.0429
AGCTGTAG	0.0786
ATGTGGGG	-0.0217
CGACCGCA	-0.027
AATGACTA	-0.197
AAGATGAT	0.0175
GTGCTAAC	0.129
AATTTACC	0.0413
CGCTGACA	0.153
GGCTTGCA	-0.142
AGCCGAAA	0.183
CTCCCGTA	0.0078
TGGATTAA	0.0316
ACGGACCA	-0.0842
ACAATGCT	-0.136
CTGACACC	0.115
CAGGAAGA	0.0842

Sequence	PBM E-score
ACGTCTGA	-0.162
ACATAGAG	-0.106
AGTCCGGC	-0.156
GAACTGAA	0.0692
TAAGGACA	-0.115
GCACTTAC	-0.111
CGTGCCTC	-0.135
CTCCTATA	0.0592
ATCATATA	0.18
CCACAATC	0.156
GTATTAGA	0.158
GCGGAGCC	0.0363
TGCAACAA	-0.192
GGCTCACC	-0.139
ATCGGGCA	-0.143
CGGTGGTC	-0.112
AGCCAGGA	-0.196
ACATTCAT	-0.0523
ACCAGCAG	0.11
CACTCTAC	0.0796
TCAAACCA	0.0818
GCTCAAAA	0.176
AATTCAAG	-0.0134
ACTTGGGA	-0.0199
GTCGACTA	-0.132

Sequence	PBM E-score
CTTGCTCC	-0.0003
GGTTCTAC	-0.0583
CTCTATCC	-0.172
ATACCACC	0.149
CATGCTAG	-0.193
CATATGTC	-0.143
ATAAGATG	0.243
CATGCTGC	-0.074
CTGATAGA	0.145
GATTGATA	-0.0521
AGATTCGA	0.00089
AAAGACCT	-0.0113
AGTAGCCA	0.0595
ATTTTCTC	-0.0311
GGCATGCC	-0.0696
TTATTAAA	0.211
CTCATGCA	-0.0866
CGTAGTCC	-0.209
AAGGTGCA	-0.0118
ATAGGACC	0.124
AATATGGT	0.0724
AAACGCCA	-0.13
CTTGTGAA	-0.148
AACGTCAA	0.0249
CTCAAGTC	-0.042

Sequence	PBM E-score
AACGGGGC	0.113
AAGGAAAG	-0.115
CCCTTATA	0.0626
ACAAGAGG	0.141
GGTTCCTA	0.342
TAATGCTA	0.14
ACAGTCCA	-0.304
CAAGTCAA	-0.0468
GATGGGCA	-0.0836
AAAGCACC	0.0793
CGTATGAG	-0.35
ATCTGTGA	0.0268
CGCTTCCC	0.273
TAGTAGCA	0.255
AAAATCTG	0.161
ATCTCCAG	0.195
GTGGCTCA	-0.145
CCGCGGCA	0.0762
AGCTTGAG	-0.0513
CAACCATG	-0.116
CACTGATA	0.0972
CCTCAGAA	0.0227
CAGGCCTA	-0.0939
AGTGCCGC	-0.233
ACCTACGA	0.0612

Sequence	PBM E-score
CCAGTCGC	0.0545
CCTCTCCC	-0.162
ATCGATGA	-0.202
CGTAAGGA	-0.129
GTGACGTA	-0.114
AGAGTTCG	-0.148
AGTTCCAG	0.139
CAGACGCA	0.175
CATCGATC	-0.217
CTAGCGAA	-0.172
AGATGAAA	-0.0505
GGCGAGCC	-0.0874
CGGTAACG	-0.169
CGGCCTAA	-0.178
CCCCAACA	0.0205
CCTGAAGG	-0.0891
GCACAAAC	-0.124
CGCCCCGA	-0.0435
AGGTTAAG	-0.129
GATGGGAA	0.123
ACATAACT	-0.00162
GGTTGACA	0.0705
CACACCGA	-0.0514
CAGGTAAA	-0.0673
CAGGGACC	0.0209

Sequence	PBM E-score
CGTCGTTC	-0.174
ACCAACCA	0.0293
ATCGAAGC	0.0574
ACAGGGAT	0.133
GCTGAGCC	-0.0982
AGCTTCAG	-0.19
AAGAAAGG	-0.125
AGAAAATG	0.172
CATGCGAG	0.0316
CCATTCAC	-0.052
AAAACCCT	-0.0492
CCGGGGCA	-0.0316
CTTCCGTC	0.0607
CATGAGAA	0.0814
CCTGGGTA	0.0628
CCATGGGA	0.0211
AGCCCCAT	0.127
CCACCAAA	-0.027
ACCAAGAT	0.135
AGTGAAGG	-0.108
ACCGTATG	-0.0243
CTTGCTAA	-0.145
ACTCGGCG	0.0257
CCCATTAC	-0.098
GGGCCGAC	-0.178

Sequence	PBM E-score
GCTGCTAC	0.249
GATACTGA	0.0945
CGTTTACA	0.101
CCATCTAG	-0.0373
CATTCAGG	0.138
AATGTGGA	0.221
GCCAAAGA	0.155
GTGAAGCA	-0.111
ATTGCCAA	-0.0899
AGAGCGGC	-0.0344
ATATGATC	0.0769
CATAGGGC	-0.0384
GACGGGTA	-0.202
ACAGGCAA	0.0089
CCTGGGGA	0.0113
ATGACTAA	-0.194
GAATGCGC	0.164
CGGTGTGA	-0.114
GTAGACAC	-0.063
CAAGAGCG	0.0229
ACCGATGC	-0.058
ACAAGGTA	-0.0513
GGATAGCC	-0.0295
GCCCCTAC	0.0372
AGTTAAAA	-0.0335

Sequence	PBM E-score
TCGTAAGA	-0.131
GTGTAACA	-0.0191
AAGAGAAT	-0.00736
ATTGCTAC	0.11
CGGGAACC	0.289
AAGTGTTC	0.00183
AAGTATGA	-0.0833
GTAGTCAA	-0.00486
CCGAACAC	0.0248
ATGACCAA	-0.114
CTCCAGCA	-0.103
CTGGCCCC	0.13
CTACTGGC	0.0475
AACACTCG	0.0837
GGTCCACA	-0.201
CTCTGAGC	-0.0198
AAAGGACC	-0.0758
AATAGCGC	0.0793
GCCTCGCC	-0.133
ATGTCGAC	-0.0503
AAATGAGG	-0.0851
AGGCTACT	-0.0491
ACGGTCGC	-0.222
GATTCACC	0.135
GTCGACCA	-0.34

Sequence	PBM E-score
AGCGCACC	0.00658
AGGGTGTA	0.0433
CTCGTCCA	0.0183
AAGATCGA	-0.0911
GTCATGAA	-0.0343
AATGTGAT	-0.0732
CTGTCATC	0.00806
CATTAAGC	0.00637
TCGACGCA	-0.17
ACCTTTAA	0.0454
AAACTCCG	-0.0765
GTATATAC	-0.108
CACTAGCG	-0.0167
CCAGGGTA	-0.22
ACGAGCAT	0.00589
CCGTACTA	-0.174
GATTACTA	-0.0812
AAACCCCG	-0.0587
GCGGGCTA	-0.0536
GTCACCAC	0.0885
ACCAACGA	0.0176
CAAGGTCC	0.0206
AGCTTTCG	-0.1
GCACAAGA	0.122
TCCCGAGA	-0.0262

Sequence	PBM E-score
ATTCTCGG	0.123
CAAGCCTA	-0.148
CTTTGGAC	-0.147
TATGAGGA	0.00369
AGTTCGGC	0.0244
TACATTGA	0.00981
AGGAACAA	-0.0764
ACTAAGAA	0.191
ACGACACG	-0.163
AGACTTAG	-0.0811
GTAACCCA	0.0887
ACGTTACG	0.0478
TATCCCAA	0.0284
ATCTATCC	0.0419
AGGTATCA	0.0276
CATATCAC	-0.00769
ATTGTAGC	0.0431
GGCCATAC	-0.166
ACGAGTCC	-0.016
GGACCAAA	0.0825
ACGCTTAC	-0.104
CCTAGTTA	0.0265
CATCGTAG	-0.35
CCCACTCA	0.104
GATGAATC	-0.0514

Sequence	PBM E-score
ACTCTAAC	0.00366
CCGAACAG	-0.0664
CGTGTAGC	-0.0292
ACAAAATA	0.233
CGATTCCC	0.0331
AGTGAGTG	-0.0793
AGTCGCAC	-0.155
AATTCTTG	0.154
CTCGCGGC	-0.0235
CTATACTC	-0.14
AGCCGCCC	0.0768
CGCTGAAC	0.0885
GCCAGTGA	-0.00473
CAACCCGC	-0.0249
CGCCCAAA	0.157
ACTCTCCA	-0.0972
ATCCCTTC	-0.161
AACGACGC	0.13
GACAGCCA	0.0445
TCACAGAA	-0.0239
CTTGAACC	-0.363
AATATATT	0.132
CACTTACG	-0.0106
AACGCCTG	-0.0154
ACATCACC	-0.0972

Sequence	PBM E-score
CCATAAAA	0.106
ACAATATG	-0.0528
GATTGGTA	0.0347
AGGCAACG	0.0198
CCTGAAAG	-0.0259
ACCCGGCC	-0.224
AAAGAGTA	0.0206
AGCTTTGA	-0.112
CGGAAGTC	-0.00248
CCTTCTCA	-0.156
CTTTGTGA	-0.0688
GGCCCTAC	-0.0581
GCGCGCGC	0.0446
GACCACAC	-0.159
GACCCCTC	-0.203
CTAACCAA	-0.0148
CCTGACCC	-0.0409
TACGGTAA	-0.0567
CAGCGCTA	-0.0949
AGAAGGCT	-0.0825
GGGAGTGA	-0.0739
AACCCGAT	0.0971
CAGGGTAC	-0.0251
CAGCCGGC	0.0486
GCTGAACA	-0.00426

Sequence	PBM E-score
ATACTGAT	0.0854
CCGTAGTA	0.00467
GGCTTCAA	-0.00701
AGGTTATA	-0.00288
ATAAAGTC	0.045
CCTCGAAG	-0.0719
AAGCTCAA	0.0073
CTCTCTTC	-0.0719
GCTGAAGC	-0.244
AGGCGGAC	-0.11
CGACATGC	-0.107
AGTTACGA	-0.0306
CGAGGCGA	-0.24
AGCCCTCC	-0.0845
AATACACG	0.0422
AACTTTAG	0.0541
GACACGTC	-0.188
CTTCAAGA	-0.0248
GATCTTAC	0.0564
GATATTAA	0.273
AGCGAGCG	-0.0853
ACGAGATC	-0.132
GCACGCGC	-0.0786
GATCTTAA	0.0466
ACGCTCCG	0.147

Sequence	PBM E-score
AGGCTTCG	0.00576
ATTGCCTA	-0.142
CGCGTCCC	0.0398
CTGCGTCA	-0.0458
CACCGGCA	0.113
AGTTCGTC	0.0308
ATGTATAG	0.0743
AGACTGAC	-0.159
CTTGCCTA	-0.223
AGTAATTG	0.0455
GTTAAGGA	0.0919
ACTGGGCT	-0.0292
AAGAGGGT	-0.0876
AGTCAATC	0.0162
AACTCGAC	0.0369
AGAGCGCA	-0.136
ATCCCAAT	0.151
AATTTGGG	0.167
ACTGCGAG	-0.0742
